“And” between values parts separate entries of the source, which are not always exact repeats. Equal values may be shown once. Screen size: about 91,000 compounds; about 290 (0.32%) were called active. Inconclusive results, whose numbers are uncertain, are shown with a selection of clear calls. The call rests on the fitted dose curve; in most records, active means well fitted inhibition curve with a large enough effect; inconclusive means small, poorly fitted or top-dose-only effect; inactive means no such curve, though single readings can be large or run the other way. Potencies of inconclusive entries are doubtful fits and often do not repeat.
Biological target: Single-stranded DNA cytosine deaminase (Homo sapiens) (UniProt Q9GZX7)
Test: Primary qHTS assay for inhibitors of Activation Induced Cytidine Deaminase (AID): AID signal; further: nearly all actives have a fitted effect of over 25% in size
Settings: AID deamination FRET fluorescence, UDG-coupled, 4 h; series mostly up to 115 µM
Potency means the concentration at half of the fitted maximal effect; tags describe the fitted curve by direction and shape.

Chain of UniProt Q9GZX7 (Q9GZX7 whole entry, looked up): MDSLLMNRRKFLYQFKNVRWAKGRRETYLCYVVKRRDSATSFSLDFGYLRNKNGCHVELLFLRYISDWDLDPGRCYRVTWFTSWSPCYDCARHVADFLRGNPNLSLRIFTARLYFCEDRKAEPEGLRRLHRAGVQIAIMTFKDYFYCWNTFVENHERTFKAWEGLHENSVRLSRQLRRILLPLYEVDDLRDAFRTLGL

Compound	Potency
COc1ccc(NC(=O)c2cc(=O)c3ccccc3o2)cc1	inactive
c1ccc(OCCn2c(COc3ccccc3)nc3ccccc32)cc1	inconclusive: 11.2 µM [inhibitor, full curve, poor fit]
O=C(c1ccc2c(c1)N(Cc1cccc(Cl)c1)C(=O)c1ccccc1S2)N1CCOCC1	inconclusive: 89.1 µM [inhibitor, partial curve, poor fit]
COc1ccc(/C=C/C(=O)NC2CC2)cc1	inactive
Cn1c(CC(=O)Nc2ccccc2)nnc1SCC(=O)NC12CC3CC(CC(C3)C1)C2	inactive
COCCN(CCOC)c1ncnc2c1c(-c1ccccc1)cn2-c1ccc(C)c(Cl)c1	inconclusive: 44.7 µM [inhibitor, partial curve, poor fit]
CCc1nn(CCCC(=O)NC(C)c2ccccc2)c(=O)c2cc3occc3n12 (stereo unspecified)	inconclusive: 70.8 µM [inhibitor, partial curve, poor fit]
COc1cc(F)ccc1NC(=O)Cc1nn(C)c(=O)c2ccccc12	inactive
COc1ccc(CCN2C(=O)CN(C3CCC(C)CC3)C(=O)C2c2ccc(OC(C)C)c(OC)c2)cc1OC (stereo unspecified)	inconclusive: 35.5 µM [inhibitor, partial curve, poor fit]
COC(=O)C(Cc1ccc(O)cc1)NC(=O)c1nn(C)c(=O)c2ccccc12 (stereo unspecified)	inactive
CCc1ccc(S(=O)(=O)c2nnn(-c3cccc(C)c3)c2N)cc1	inconclusive: 25.1 µM [inhibitor, partial curve, poor fit]
COC(=O)c1[nH]c2ccc(C)cc2c1NC(=O)C(C)N1CCCC(C)(C)C1 (stereo unspecified)	inactive
CSc1ccccc1C(=O)Nc1ccc(C(C)C)cc1	inactive
CC(=O)N1CCc2c(sc3c2c(=O)n(Cc2ccccc2)c(=O)n3CC(=O)Nc2ccc(C)c(F)c2)C1	inconclusive: 44.7 µM [inhibitor, partial curve, poor fit]
CC(C)=C(/C(=C/CS(=O)(=O)c1ccc(C)cc1)S(=O)(=O)c1ccccc1)S(=O)(=O)c1ccccc1	inactive
CCCOc1ccc(-c2nc(C#N)c(NCc3ccco3)o2)cc1	inactive
Cn1c(=O)c2c(-c3ccccc3Br)n(CCc3ccccc3)cc2n(C)c1=O	inconclusive: 56.2 µM [inhibitor, partial curve, poor fit]
CCc1ccc(NC(=O)CSc2nnc(-c3cc4occc4n3C)n2-c2ccccc2C)cc1	inconclusive: 20 µM [inhibitor, full curve, poor fit]
Clc1ccccc1Cc1cn2cc(-c3ccccc3)nc2s1	inconclusive: 3.16 µM [inhibitor, full curve, poor fit]
Cc1ccc(CN(Cc2ccco2)C(=O)c2oc3c(C)c(C)ccc3c2C)cc1	inconclusive: 44.7 µM [inhibitor, partial curve, poor fit]
COCCNC(=O)c1cc2c(Cl)nc3ccc(C)cc3c2s1	inconclusive: 28.2 µM [inhibitor, partial curve, poor fit]
Cc1cc(C)c2c(c1)C(=O)/C(=C\c1ccccc1)CC2	inactive

Compound	Potency
CCc1ccc(C(=O)NCC(C)C)o1	inactive
CC1CCCC(NC(=O)c2cc(Sc3cccc(Cl)c3)nc3ccccc23)C1C (stereo unspecified)	inactive
Clc1ccc(C(c2ccccc2Cl)C(Cl)Cl)cc1 (stereo unspecified)	inconclusive: 50.1 µM [inhibitor, partial curve, poor fit]
CCCN(CCC)CC(O)Cn1cc(/C=C/C(=O)c2ccc(OCC)cc2)c2ccccc21 (stereo unspecified)	active: 35.5 µM
COc1ccc(Nc2nc(N)nc(CSc3nc4cc(OC)ccc4s3)n2)cc1	inconclusive: 89.1 µM [inhibitor, single point]
C=C(CS(=O)(=O)c1ccc(C)cc1)S(=O)(=O)c1ccc(C)cc1	inactive
CCCCCn1c(=N)n(CC(O)COc2cccc(C)c2)c2ccccc21 (stereo unspecified)	inconclusive: 56.2 µM [inhibitor, partial curve, poor fit]
COC(=O)c1ccc(OCC2c3cc(OC)c(OC)cc3CCN2C(=O)c2ccccc2F)cc1 (stereo unspecified)	inactive
CC(SC(=S)N(C)C)C(=O)NC(C)c1ccc(F)cc1 (stereo unspecified)	inactive
CCOC(=O)C1CCN(C(=O)c2cn(-c3ccccc3)nc2-c2ccc(Cl)cc2)CC1	inactive
COc1ccc(Nc2nc3ccccc3nc2NS(=O)(=O)c2ccc(Cl)s2)c(OC)c1	inactive
Cc1ccccc1-c1noc(COc2ccc3c(C)cc(=O)oc3c2)n1	inactive
N#CCc1c(C#N)c(N)nc(NCc2ccccc2)c1C#N	inconclusive: 17.8 µM [inhibitor, partial curve, poor fit]
Cc1oc2ccc(O)c(CN(C)Cc3ccccc3)c2c1C(=O)Nc1cccc(C(F)(F)F)c1	inconclusive: 89.1 µM [inhibitor, single point]
COc1ccc(C(=O)c2cn(CC(=O)Nc3ccc4c(c3)OCCO4)c3ccc(OC)cc3c2=O)cc1	inconclusive: 56.2 µM [inhibitor, partial curve, poor fit]
CCN(CC)C(=O)CSc1nc(N2CCCC2)c2c(c1C#N)CCCC2	inactive
CCOc1ccc(-n2c(CCC(=O)O)ccc2-c2ccc(Br)cc2)cc1	inconclusive: 79.4 µM [inhibitor, partial curve, poor fit]
CCOc1ccc(-n2c(SCC(=O)N3CCCC3)nc3c([nH]c4ccccc43)c2=O)cc1	inconclusive: 22.4 µM [inhibitor, single point]
CCc1ccc(CNC(=O)c2ccc3c(c2)N=C(C)c2cc(C)ccc2S3)cc1	inconclusive: 39.8 µM [inhibitor, partial curve]
CCOc1ccc(Cn2nnc3c(=O)[nH]c(C4CCN(C(=O)c5ccccc5)CC4)nc32)cc1	inconclusive: 39.8 µM [inhibitor, single point]
CCOc1ccccc1/C=C/c1onc(C)c1S(=O)(=O)N1CCC(C(=O)N(CC)CC)CC1	inconclusive: 56.2 µM [inhibitor, partial curve, poor fit]
CCCOc1ccc(-c2nn(-c3ccccc3)cc2C2NC(=O)NC(C)=C2C(=O)OC(C)C)cc1 (stereo unspecified)	inconclusive: 25.1 µM [inhibitor, full curve, poor fit] and inconclusive: 56.2 µM [inhibitor, partial curve]

Compound	Potency
COc1ccc(-c2cnnn2-c2ccc(NC(=O)c3ccc(S(=O)(=O)N(C)C)cc3)cc2)cc1	inconclusive: 56.2 µM [inhibitor, single point]
CCC(C(=O)N1CCN(c2ccccc2)CC1)n1nc(C)n2c(cc3sccc32)c1=O (stereo unspecified)	inconclusive: 50.1 µM [inhibitor, partial curve, poor fit]
Cc1sc2nc(C(C)Sc3nnnn3C3CC3)[nH]c(=O)c2c1C (stereo unspecified)	inactive
COc1cc(OC)c(Nc2cc(C)nc3ncnn23)cc1Cl	inconclusive: 10 µM [inhibitor, full curve]
Cc1nc2cc(F)ccc2cc1C(=O)NCC1COc2ccccc2O1 (stereo unspecified)	inactive
COc1ccc(C(=O)NCc2nnc(SCC(=O)Nc3ccccc3)n2-c2ccc(F)cc2)cc1	inconclusive: 39.8 µM [inhibitor, full curve, poor fit]
Cc1ccc(Cl)cc1N1CCN(c2ncnc3onc(C)c23)CC1	inconclusive: 56.2 µM [inhibitor, partial curve, poor fit]
CC(/C=N/NC(=O)C1CC1c1ccc(C(C)(C)C)cc1)c1ccccc1 (stereo unspecified)	inactive
COc1ccc(-c2cc(C(=O)NCC(O)CO)c3ccccc3n2)cc1 (stereo unspecified)	inactive
Cc1cc(OCC(=O)N(Cc2sccc2C)C2CCS(=O)(=O)C2)ccc1Cl (stereo unspecified)	inconclusive: 56.2 µM [inhibitor, partial curve, poor fit]
CCc1cccc(C)c1NC(=O)CSc1nnc(CC)n2c1cc1occc12	inconclusive: 50.1 µM [inhibitor, partial curve, poor fit]
CC(=O)c1c(Cc2ccccc2)sc(C#N)c1C	inactive
O=c1c(S(=O)(=O)c2ccccc2)cn(Cc2ccccc2)c2cc(N3CCOCC3)c(F)cc12	inconclusive: 50.1 µM [inhibitor, partial curve, poor fit]
CC(C(=O)NCc1ccccc1F)n1ccc2cc(S(=O)(=O)N3CCCC3)ccc21 (stereo unspecified)	inconclusive: 100 µM [inhibitor, single point]
CCOC(=O)c1ccoc1CN(CC)CC	inactive
Cn1nc(-c2ccc(C(=O)Nc3ccc(F)cc3)cc2)c2ccccc2c1=O	inconclusive: 50.1 µM [inhibitor, partial curve, poor fit]
C=Cc1ccc(Cn2nc(-c3ccc(C)c(S(=O)(=O)N(CC)CC)c3)ccc2=O)cc1	inconclusive: 44.7 µM [inhibitor, partial curve, poor fit]
O=C(O)CSc1c2c(nc3cc(C(=O)Nc4ccc(F)c(Cl)c4)ccc13)CCC2	inconclusive: 79.4 µM [inhibitor, partial curve, poor fit]
COc1ccc(Nc2ncc3c(n2)CCN(Cc2cc(Br)cs2)C3)c(OC)c1	inconclusive: 39.8 µM [inhibitor, partial curve, poor fit]
O=C(COC(=O)c1ccc(F)c([N+](=O)[O-])c1)Nc1ccc2c(c1)OC1(CCCCC1)O2	inconclusive: 50.1 µM [inhibitor, partial curve, poor fit]
CC(OC(=O)c1csc(NCc2ccccc2)n1)C(=O)N(C)Cc1ccccc1 (stereo unspecified)	inactive
Cc1cc(C)c(NC(=O)Cn2c(=O)n(Cc3ccc4c(c3)OCO4)c(=O)c3ccc(C(=O)NC4CCCCC4)cc32)c(C)c1	inconclusive: 79.4 µM [inhibitor, single point]

Reference: PubChem BioAssay AID1347428 (National Center for Advancing Translational Sciences (NCATS), 2020)
